Laboratory results taken from PubChem BioAssay (NCATS).
This list was built around the results that the source calls inconclusive (neither active nor inactive); the mix of calls is not that of the screen. A potency beside an inconclusive call is a rough fit, not a confirmed value. Activity calls are given as the source filed them. Calls come from the whole dose curve; as a rule, active = well fitted curve in the direction sought with a large enough effect; inconclusive = small, poorly fitted or top-dose-only effect, or another doubt; inactive = no such curve, though single readings can be large; an effect the other way counts as inactive or inconclusive.

Tests used:
[1] = HPAF-II Cancer Cell Toxicity qHTS against the NCATS CANVASS Library (AID 1347346); details: HPAF-II viability, CellTiter-Glo ATP luminescence, 72 h; series mostly up to 38.3 µM; note: nearly all actives have a fitted effect of over 55% in size
Outline: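 Cytotoxicity in HPAF-II pancreatic cancer cells: 72 h treatment across 11 concentrations, ATP-based CellTiter-Glo luminescence endpoint.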

[2] = UWB1.289 Cancer Cell Toxicity qHTS against the NCATS CANVASS Library (AID 1347347); details: UWB1.289 viability, CellTiter-Glo luminescence, 72 h; series mostly up to 38.3 µM; note: nearly all actives have a fitted effect of over 60% in size
Outline: (§1)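 Quantitative HTS format: an 11-concentration series was applied to 1000 cells/well following a 4-hour attachment. Cultures ran 72 hours before ATP luminescence detection by CellTiter-Glo.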

[3] = Panc-1005 Cancer Cell Toxicity qHTS against the NCATS CANVASS Library (AID 1347349); details: Panc-1005 viability, CellTiter-Glo luminescence, 72 h; series mostly up to 38.3 µM; note: nearly all actives have a fitted effect of over 60% in size
Outline: as §1

[4] = SW1088 Cancer Cell Toxicity qHTS against the NCATS CANVASS Library (AID 1347350); details: SW1088 viability, CellTiter-Glo luminescence, 72 h; series mostly up to 38.3 µM; note: nearly all actives have a fitted effect of over 75% in size
Outline: as §1

[5] = U-118MG Cancer Cell Toxicity qHTS against the NCATS CANVASS Library (AID 1347351); details: U-118MG viability, CellTiter-Glo luminescence, 72 h; series mostly up to 38.3 µM
Outline: as §1

[6] = A2780 Cisplatin Sensitive Ovarian Cancer Cell Toxicity qHTS against the NCATS CANVASS Library (AID 1347353); details: A2780 ovarian cancer viability, ATPLite luminescence, 72 h; series mostly up to 46.1 µM; note: nearly all actives have a fitted effect of over 60% in size
Outline: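 Seventy-two-hour exposure of cisplatin-sensitive A2780 ovarian cells to an 11-concentration qHTS series; cytotoxicity is inferred from loss of ATPLite luminescence. Bortezomib titration served as positive control.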

[7] = HEK-293 Cancer Cell Toxicity qHTS against the NCATS CANVASS Library (AID 1347355); details: HEK-293 viability, CellTiter-Glo luminescence, 72 h; series mostly up to 46.1 µM; note: nearly all actives have a fitted effect of over 65% in size
Outline: (§2)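 qHTS cytotoxicity: compounds tested in 11 concentrations on 1000 seeded cells per well over 72 h; bortezomib served as control; signal from CellTiter-Glo luminescence.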

[8] = KB-8-5-11 Cancer Cell Toxicity qHTS against the NCATS CANVASS Library (AID 1347364); details: KB-8-5-11 MDR cells viability, CellTiter-Glo, 72 h; series mostly up to 46.1 µM; note: nearly all actives have a fitted effect of over 75% in size
Outline: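 Natural products were titrated in 11 points onto KB-8-5-11 cells, 500 per well, and cytotoxicity was scored from CellTiter-Glo luminescence after 72 hr culture.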

[9] = qHTS for ATAD5 Antagonist screened against the NCATS CANVASS Library (AID 1347370); details: HEK293T-ATAD5-luc, 5-FUrd stimulated, luminescence, 16 h; series mostly up to 46.1 µM; note: nearly all actives have a fitted effect of over 65% in size
Outline: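 HEK293T cells with a stably integrated ATAD5-controlled luciferase reporter were exposed to compounds (11-pt) alongside 10 uM 5-fluorouridine as ATAD5 stabilizer for 16hr at 37C. Viability was read by CellTiter-Fluor fluorescence, then ATAD5 by luminescence.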

[10] = J3T Cancer Cell Toxicity qHTS against the NCATS CANVASS Library (AID 1347371); details: J3T dog glioma viability, ATP luminescence, 72 h; series mostly up to 46.1 µM
Outline: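 Viability of the J3T glioma line from dog is scored by ATP luminescence after a 72 hr incubation with natural products.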

[11] = qHTS for activators of Nrf2/ARE signaling pathway screened against the NCATS CANVASS Library (AID 1347391); details: ARE-bla HepG2, beta-lactamase reporter, 16 h; series mostly up to 46.1 µM; note: nearly all actives have a fitted effect of over 60% in size
Outline: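 Cells carrying an ARE-driven beta-lactamase reporter (HepG2 background) are dosed for 16 h, then stained with CCF4. Cell viability in the same wells is measured by CellTiter-Glo luminescence.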

[12] = qHTS for inhibitors of ER calcium dysfunction: SERCaMP assay screened against the NCATS CANVASS Library (AID 1347393); details: SH-SY5Y GLuc-SERCaMP (Gaussia luciferase released on ER calcium loss) secretion, thapsigargin, luminescence; series mostly up to 76.6 µM; note: nearly all actives have a fitted effect of over 40% in size
Outline: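 Thapsigargin-induced ER calcium depletion drives GLuc-SERCaMP secretion from SH-SY5Y cells; compounds given 16 h beforehand were scored by lowered coelenterazine luminescence after 4 h challenge.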

[13] = Vero-766 cells viability qHTS against the NCATS CANVASS Library: Counterscreen for Zika virus inhibition assay (AID 1347394); details: Vero 766 viability, CellTiter-Glo luminescence, 72 h; activity change, negative = cytotoxic: at 46.1 µM (top of the series); note: nearly all actives have a fitted effect of over 60% in size
Outline: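 Vero 766, no virus; 1000 cells/well; o/n attach; cpd 11-pt; 72 h, 37C, 5% CO2; CTG luminescence; cell-free media wells = 100% inhibition.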

[14] = OV-SAHO Cancer Cell Toxicity qHTS against the NCATS CANVASS Library (AID 1347348); details: OV-SAHO viability, CellTiter-Glo luminescence, 72 h; series mostly up to 38.3 µM; note: nearly all actives have a fitted effect of over 55% in size
Outline: as §1

[15] = qHTS for Antimalaria activity screened against the NCATS CANVASS Library (AID 1347380); note: nearly all actives have a fitted effect of over 40% in size; details: P. falciparum Dd2 growth, SYBR Green fluorescence, 72 h; series mostly up to 28.7 µM
Outline: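 Growth inhibition of asexual erythrocytic P. falciparum Dd2 was quantified by SYBR Green DNA staining. Cultures grew 72 h with compound (11-point series) in hypoxic gas at 37C; lysis and staining lasted 18 h.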

[16] = COV-362 Cancer Cell Toxicity qHTS against the NCATS CANVASS Library (AID 1347352); details: COV-362 viability, CellTiter-Glo luminescence, 72 h; series mostly up to 38.3 µM
Outline: as §2

[17] = KB-3-1 Cancer Cell Toxicity qHTS against the NCATS CANVASS Library (AID 1347366); details: KB-3-1 viability, CellTiter-Glo luminescence, 72 h; series mostly up to 46.1 µM; note: nearly all actives have a fitted effect of over 75% in size
Outline: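 Luminescence from CellTiter-Glo (10 min, room temperature) measured KB-3-1 viability after 72 hr compound exposure at 37C. Cells were seeded at 500/well and tested in an 11-point series.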

[18] = qHTS for Hypoxia signaling pathway (HIF-1) antagonists against the NCATS CANVASS Library (AID 1347374); details: HRE-bla ME-180 cells, HIF-1 beta-lactamase reporter, CoCl2; series mostly up to 38.3 µM; note: nearly all actives have a fitted effect of over 60% in size
Outline: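 HRE-bla ME-180 cells (2,000/well, 0.5% dialyzed FBS) were pre-incubated 5 h, then given an 11-point compound series plus CoCl2 (60 uM solution as added) for 17 h at 37C. CCF4 β-lactamase read (ex 405, em 460/530 nm) after 2 h at RT.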

[19] = qHTS for Activators of p53 Stress Response Pathway screened against the NCATS CANVASS Library (AID 1347388); details: p53RE-bla HCT-116, beta-lactamase reporter, 16 h; series mostly up to 46.1 µM
Outline: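 Beta-lactamase reporter driven by p53 response elements in HCT-116 cells, read as the 460 nm/530 nm emission ratio after CCF4 loading, following 16 h of exposure to an 11-point series. Cell viability was measured in the same wells by CellTiter-Glo luminescence.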

[20] = Viability qHTS for inhibitors of the SERCaMP assay screened against the NCATS CANVASS Library (AID 1347400); details: SH-SY5Y SERCaMP cells viability, CellTiter-Glo, 48 h; series mostly up to 92.2 µM; note: nearly all actives have a fitted effect of over 70% in size
Outline: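 Cytotoxicity counter-screen: ATP content (CellTiter-Glo luminescence) of SH-SY5Y-GLuc SERCaMP MJH297 cells after 48 h at 37C with compounds in an 11-point qHTS series.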
Potency is the fitted concentration of half-maximal effect; tags give direction and shape of the fitted curve.

CC(C)[C@]12CC[C@@]3(C)[C@H](C)CC[C@H](O)[C@@]3(CC1)c1cc3c(cc12)[nH]c1ccccc13
Potency [1]: inconclusive: 16.8 µM [cytotoxic, partial curve] | Potency [2]: inconclusive: 8.38 µM [cytotoxic, partial curve] | Potency [3]: inconclusive: 13.3 µM [cytotoxic, partial curve] | Potency [4]: inconclusive: 23.7 µM [cytotoxic, partial curve] | Potency [5]: inactive | Potency [6]: inconclusive: 33.2 µM [cytotoxic, single point] | Potency [7]: inconclusive: 37.2 µM [cytotoxic, single point] | Potency [8]: inconclusive: 26.4 µM [cytotoxic, single point] | Potency [9]: inactive | Potency [10]: inactive | Potency [11]: inconclusive: 16.6 µM [activator, partial curve] | Potency [12]: inconclusive: 21.6 µM [inhibitor, partial curve] | Potency [13]: inconclusive: 7.41 µM [cytotoxic, partial curve, poor fit]

C=C[C@]1(C)CC[C@@H]([C@H](C)C(=O)/C=C/C(C)C)O1
Potency [1]: inactive | Potency [14]: inactive | Potency [7]: inactive | Potency [15]: inconclusive: 0.0133 µM [cytotoxic, full curve, poor fit] | Potency [12]: inconclusive: 2.72 µM [inhibitor, partial curve]

O=C1CC2OCC=C3CN4C5CC3C2[C@@H]2N1c1ccccc1[C@]52C[C@@H]4C1=C[C@H]2C3CC4N(CC[C@@]45c4ccccc4N(C1=O)[C@@H]25)C/C3=C/CO (some centres not stated)
Potency [2]: inconclusive: 13.3 µM [cytotoxic, partial curve] | Potency [14]: inconclusive: 14.9 µM [cytotoxic, partial curve] | Potency [4]: inconclusive: 29.8 µM [cytotoxic, single point] | Potency [5]: inconclusive: 29.8 µM [cytotoxic, single point] | Potency [16]: inconclusive: 16.7 µM [cytotoxic, partial curve] | Potency [7]: active: 16.6 µM | Potency [8]: active: 18.7 µM | Potency [17]: inconclusive: 33.2 µM [cytotoxic, single point] | Potency [9]: inconclusive: 37.1 µM [inhibitor, single point] | Potency [10]: inconclusive: 37.2 µM [cytotoxic, single point] | Potency [18]: inconclusive: 29.8 µM [inhibitor, single point] | Potency [19]: inconclusive: 18.6 µM [activator, partial curve] | Potency [12]: inconclusive: 3.43 µM [inhibitor, full curve] | Potency [20]: inconclusive: 34 µM [cytotoxic, partial curve]
